# Experimental data reported in PubChem BioAssay (NCATS).
# Values joined by “and” are separate entries in the source; they are usually repeats but may differ in a detail not shown here. Identical values can stand only once. This list was built around the results that the source calls inconclusive (neither active nor inactive); the mix of calls is not that of the screen. Potencies beside an inconclusive call are fits to weak or partial responses and may not hold up. Some structures have more than one record in an assay (separate samples or runs), and their calls can disagree. Active and inactive are the calls of the source. Unless noted, calls follow the shape of the dose curve; as a rule, active = well fitted curve in the direction sought with a large enough effect; inconclusive = small, poorly fitted or top-dose-only effect, or another doubt; inactive = no such curve, though single readings can be large; an effect the other way counts as inactive or inconclusive.
# Tested on: not listed separately
# Experiment: P-glycoprotein substrates identified in KB-8-5-11 adenocarcinoma cell line, qHTS therapeutic library screen (AID 1346987); also: nearly all actives have a fitted effect of over 65% in size; as to activity change, negative = cytotoxicity: % is scaled to controls: 0 for no effect and ±100 for the full control effect
# Conditions: KB-8-5-11 (P-gp overexpressing) viability, CellTiter-Glo, 72 h; series mostly up to 44.5 µM; activity change, negative = cytotoxicity: at the top concentration
# In short: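 Luminescence from CellTiter-Glo, read 5 min after addition, quantified survival of KB-8-5-11 (P-gp-overexpressing) cells exposed to compounds for 72 h. AC50 was derived from concentration-response curves.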
# Potency is read from the fitted curve at half-maximal effect; tags tell the direction and shape of the fitted curve.
SMILES,Potency,"activity change, negative = cytotoxicity"
CO[C@@]12[C@H](COC(N)=O)C3=C(C(=O)C(C)=C(N)C3=O)N1C[C@@H]1N[C@@H]12,active: 16.6 µM,
CCC(=O)c1ccc2c(c1)N(CCCN(C)C)c1ccccc1S2,"inconclusive: 29.1 µM [inhibitor, single point]",
CCN(CC)CCNc1ccc(CO)c2sc3ccccc3c(=O)c12,"inconclusive: 11.6 µM [inhibitor, partial curve]",
CNCCCC1c2ccccc2C=Cc2ccccc21,"inconclusive: 11.1 µM [inhibitor, single point]",
C[C@]12C[C@H](O)[C@H]3[C@@H](CCC4=CC(=O)CC[C@@]43C)[C@@H]1CC[C@@H]2C(=O)CO,"inconclusive: 23.1 µM [inhibitor, partial curve]",
Nc1ccn([C@@H]2O[C@H](CO)[C@H](O)C2(F)F)c(=O)n1,inconclusive: 0.264 µM,
CN1CCCC(n2nc(Cc3ccc(Cl)cc3)c3ccccc3c2=O)CC1 (stereo not given),"inconclusive: 5.8 µM [inhibitor, partial curve] and inactive",
O=c1c(-c2ccccc2)c1-c1ccccc1,"inconclusive: 25.9 µM [inhibitor, single point]",
c1cnc(N2CCN(Cc3ccc4c(c3)OCO4)CC2)nc1,"inconclusive: 16.4 µM [inhibitor, single point]",
NC(CS)C(=O)O (stereo not given),,inactive: 0.953%
CCCCCCCC(=O)O,,inactive: -5.07%

# Target: Atrial natriuretic peptide receptor 2 (Homo sapiens) (UniProt P20594)
# Experiment: Natriuretic polypeptide receptor (hNpr2) antagonism - Pilot subtype selectivity assay (AID 1347050; calls by dose curve; as to activity change, negative = inhibition: % is scaled to controls: 0 for no effect and ±100 for the full control effect)
# Conditions: NPR2-expressing cells, cGMP antagonist-mode read-out; series mostly up to 38.3 µM; activity change, negative = inhibition: at the top concentration
# In short: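 Luminescence from a genetically encoded cGMP luciferase biosensor in hNpr2-expressing HEK293 cells is read before and 20 min after adding 1 nM hNppC. Test compounds, in interplate 1:5 titrations, are added 30-50 min ahead of the agonist.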
# Sequence of UniProt P20594 (P20594 whole entry, looked up): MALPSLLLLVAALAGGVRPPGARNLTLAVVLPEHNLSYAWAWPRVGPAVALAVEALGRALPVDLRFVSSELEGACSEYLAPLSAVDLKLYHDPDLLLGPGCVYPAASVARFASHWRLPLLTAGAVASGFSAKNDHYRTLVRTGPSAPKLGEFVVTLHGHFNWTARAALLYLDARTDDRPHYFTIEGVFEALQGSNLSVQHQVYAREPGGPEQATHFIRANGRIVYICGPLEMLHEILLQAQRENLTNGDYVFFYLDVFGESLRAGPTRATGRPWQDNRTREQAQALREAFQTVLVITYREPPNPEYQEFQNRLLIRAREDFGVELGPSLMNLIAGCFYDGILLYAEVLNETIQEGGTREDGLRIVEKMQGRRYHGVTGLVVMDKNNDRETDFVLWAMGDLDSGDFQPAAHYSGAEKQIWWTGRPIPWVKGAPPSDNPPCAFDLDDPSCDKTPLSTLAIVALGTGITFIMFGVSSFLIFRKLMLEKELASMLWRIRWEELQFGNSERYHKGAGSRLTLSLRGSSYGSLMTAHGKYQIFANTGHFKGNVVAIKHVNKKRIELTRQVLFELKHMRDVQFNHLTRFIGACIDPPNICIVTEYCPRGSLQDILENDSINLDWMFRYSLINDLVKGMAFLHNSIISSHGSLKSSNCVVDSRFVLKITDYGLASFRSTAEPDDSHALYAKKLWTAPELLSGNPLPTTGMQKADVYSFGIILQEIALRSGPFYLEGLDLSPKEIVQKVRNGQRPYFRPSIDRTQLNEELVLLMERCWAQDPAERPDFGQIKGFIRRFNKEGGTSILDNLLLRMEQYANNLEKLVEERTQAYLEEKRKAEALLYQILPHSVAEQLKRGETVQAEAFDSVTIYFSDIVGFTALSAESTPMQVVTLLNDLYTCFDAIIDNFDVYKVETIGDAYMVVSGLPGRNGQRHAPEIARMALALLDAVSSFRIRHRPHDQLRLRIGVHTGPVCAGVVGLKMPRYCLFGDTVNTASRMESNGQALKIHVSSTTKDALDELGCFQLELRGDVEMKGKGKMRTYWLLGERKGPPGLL
SMILES,Potency,"activity change, negative = inhibition"
CC(CN(C)C)CN1c2ccccc2CCc2ccccc21 (stereo not given),"inconclusive: 26.1 µM [inhibitor, single point]",
CN(C)CCCN1c2ccccc2Sc2ccc(Cl)cc21,active: 14.7 µM,
CNCCCC1c2ccccc2C=Cc2ccccc21,"inconclusive: 14.7 µM [inhibitor, single point]",
c1cnc(N2CCN(Cc3ccc4c(c3)OCO4)CC2)nc1,,inactive: -3.79%

# Tested on: not listed separately
# Experiment: NS1 protein of Zika virus - qHTS assay to identify small molecule inhibitors in human HEK 293 cells (AID 1347053); also: nearly all actives have a fitted effect of over 55% in size;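 as to activity change, negative = inhibition: plate controls were infected untreated cells for no effect and uninfected cells for full effect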
# Conditions: HEK293 ZIKV MR766 infection, NS1 TR-FRET, 24 h; series mostly up to 46.1 µM; activity change, negative = inhibition: at the top concentration
# In short: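 In this cell-based screen, HEK 293 cultures received compound for one hour before Zika MR766 at MOI = 0.5. NS1 was quantified 24 hours later by TR-FRET, normalized to virus-free wells and infected wells.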
SMILES,Potency,"activity change, negative = inhibition"
O[C@@H](c1cc(C(F)(F)F)nc2c(C(F)(F)F)cccc12)[C@H]1CCCCN1,"inconclusive: 35.5 µM [inhibitor, single point]",
CC[C@]1(O)C[C@@H]2CN(CCc3c([nH]c4ccccc34)[C@@](C(=O)OC)(c3cc4c(cc3OC)N(C)[C@H]3[C@@](O)(C(=O)OC)[C@H](OC(C)=O)[C@]5(CC)C=CCN6CC[C@]43[C@@H]65)C2)C1,inactive,
CCCCCCCCNC(C)C(O)c1ccc(SC(C)C)cc1 (stereo not given),"inconclusive: 20 µM [inhibitor, single point]",
O=C1[C@H]2CCCC[C@H]2C(=O)N1CCCCN1CCN(c2nsc3ccccc23)CC1,,inactive: 5.78%
CNCCC(Oc1ccc(C(F)(F)F)cc1)c1ccccc1 (stereo not given),inactive,
CCC1=C[C@@H]2CN(C1)Cc1c([nH]c3ccccc13)[C@@](C(=O)OC)(c1cc3c(cc1OC)N(C)[C@@H]1[C@@](O)(C(=O)OC)[C@H](OC(C)=O)[C@]4(CC)C=CCN5CC[C@]31[C@@H]54)C2,active: 4.18 µM,
OCCN1CCN(CCCN2c3ccccc3Sc3ccc(Cl)cc32)CC1,"inconclusive: 35.5 µM [inhibitor, single point]",
CCCCC(CC)CN=C(N)NC(N)=NCCCCCCN=C(N)NC(N)=NCC(CC)CCCC (stereo not given),"inconclusive: 35.5 µM [inhibitor, single point]",
COc1cc2c(cc1OC)-c1cc(=Nc3c(C)cc(C)cc3C)n(C)c(=O)n1CC2,"inconclusive: 31.6 µM [inhibitor, single point]",
COc1cc(C(=O)OCCCN2CCCN(CCCOC(=O)c3cc(OC)c(OC)c(OC)c3)CC2)cc(OC)c1OC,inactive,
C[C@@H]1C[C@H]2[C@@H]3CCC4=CC(=O)C=C[C@]4(C)[C@@]3(F)[C@@H](O)C[C@]2(C)[C@H]1C(=O)CO,,inactive: 0.962%
Oc1c(I)cc(Cl)c2cccnc12,"inconclusive: 35.5 µM [inhibitor, single point]",
Cc1c(O)cccc1C(=O)N[C@@H](CSc1ccccc1)[C@H](O)CN1C[C@H]2CCCC[C@H]2C[C@H]1C(=O)NC(C)(C)C,"inconclusive: 35.5 µM [inhibitor, single point]",
CN(C)CCCN1c2ccccc2Sc2ccc(Cl)cc21,"active: 7.08 µM and inconclusive: 35.5 µM [inhibitor, single point]",
COc1ccc(CN2CCN(C(c3ccc(F)cc3)c3ccc(F)cc3)CC2)c(OC)c1OC,"inconclusive: 35.5 µM [inhibitor, single point]",
